# Data taken from publication PMC12136788.
# The other results are listed elsewhere or left out.
# B1: chr19:2853326:2853433:+|CDS|ENSG00000186300|unk|total|mutant (ssRNA)
# RNA: GGGAGUUCUACAGUCCGACGAUCCAAUGUGGGAAAACUUUCAAUUGGCCCAUAUCUUUACGAAAACAUAUGAGAACACAUACCCGAGAGAAACCCUAUGAAUGUAAGCAGUGUGGGAAAGCCUUCAGCUUGUCUGCUUGCUUUCAACAGAGGAUUGAGCAUCA
# B2: chr5:75599425:75599511:+|3pUTR|ENSG00000122008|msi1_unk|FALSE|overlapping (ssRNA)
# RNA: GGGAGUUCUACAGUCCGACGAUCGAAUAGCUUAAUUAAGAACUCACAGACUUUGACAAAGUGGUAACUAGACUUUUAAUUACUAGAUUCUUCAAAUUAGGCUUAAUGCCUGCUAGCAUGCCAAUCCAAUCCCAUGACUGAUGUCAACAGAGGAUUGAGCAUCA
# B3: chr19:35623844:35623945:+|3pUTR|ENSG00000249115|unk|FALSE|unique (ssRNA)
# RNA: GGGAGUUCUACAGUCCGACGAUCUGUGUCAAGAGCAGCGGCGGUGACGCAGGUGUAGAGAUUUGUCAGAGCUCAUGUAGUUGUAGUCUUAAGGCCUGUGCAUUUCACUGCGUGGGUUACUCAAUUUAUAAAGCAAAGCCCUUACAACAGAGGAUUGAGCAUCA
# B4: chr12:122341087:122341188:-|CDS|ENSG00000130779|unk|FALSE|bound_elsewhere (ssRNA)
# RNA: GGGAGUUCUACAGUCCGACGAUCAGAAUUUGCUGAACUAAAAACACAAAUAGAGAAAAUGAGACUAGAUUACCAACACGAAAUAGAAAAUUUGCAGAAUCAACAAGACUCUGAACGGGCUGCCCAUGCUAAAGAGAUGGAAGCCAACAGAGGAUUGAGCAUCA
# B5: chr3:52707940:52708050:+|3pUTR|ENSG00000114902|msi1_unk|FALSE|overlapping (ssRNA)
# RNA: GGGAGUUCUACAGUCCGACGAUCUUUAGUUCUCUUUAUACUUCAUUUCUAGCCCAGUUGGGUUUUGAUUUAUAUAAGUAGUUUAGACCUUCUCUUCAUAAUCUUGCUCUGAGAUGGGGAACAGAACACACAAGUAUGAAGUUUCAACAGAGGAUUGAGCAUCA
# B6: chr16:1943973:1944836:-|three_prime_utr|ENSG00000140986|control|control|control (ssRNA)
# RNA: GGGAGUUCUACAGUCCGACGAUCUUCCUGCGAGGUCUCAGAGCGCUGUGUAACCGCCCAAGGGGUUCACCUUGCCUGCUGCCUAGACAAAGCCGAUUCAUUAAGACAGGGGAAUUGCAAUAGAGAAAGAGUAAUUCACACAGACAACAGAGGAUUGAGCAUCA
# B7: chr3:193274788:193275041:-|three_prime_utr|ENSG00000187527|control|control|control (ssRNA)
# RNA: GGGAGUUCUACAGUCCGACGAUCUCUCCAUUCAAGCAUUCAAAGUAUAUUUUCAAUGAAUUAAACCUUGCAGCAAGGGACCUUAGAUAGGCUUAUUCUGACUGUAUGCUUUACCAAUGAGAGAAAAAAAUGCAUUUCCUGUAUCAACAGAGGAUUGAGCAUCA
# B8: chr7:123541454:123541562:-|3pUTR|ENSG00000128609|unk|total|mutant (ssRNA)
# RNA: GGGAGUUCUACAGUCCGACGAUCUCCACCGUGUCAUUUUAUUUCCGUCAUUAUUGAAUUAUACCAUUUACUCUGUUUUCUUACCGUCUUAAUUUUAUUAUAUUUUGUUGUUACUGUAUUAUAUUUGAAAACCUUCAAAUCCGACAACAGAGGAUUGAGCAUCA
# B9: chr8:80500255:80500365:+|CDS|ENSG00000205189|unk|FALSE|unique (ssRNA)
# RNA: GGGAGUUCUACAGUCCGACGAUCGAAAAACCAAACUACAAAAAGAUUUAUUUAUAAUAUUCCACCUAAUAAUGAAACGAAUUUAGAAGAUUGCUCAGUAAUGCAGCCACCUGUUGCCUAUCCAGAAGAAAAUACACUACUCAUCAACAGAGGAUUGAGCAUCA
# B10: chr8:132572308:132572480:-|CDS|ENSG00000129295|control|control|control (ssRNA)
# RNA: GGGAGUUCUACAGUCCGACGAUCGCACAUGGAGAAACUAGAAGUAGACCCUAGCAAGCACUCAUUCCCUGAUGUGACUAACAUAGUUCAAGAGAAAAAACACACACCCAGAAGACGACCUGAACCCAAAAUUAUACCAAGUGACAACAGAGGAUUGAGCAUCA
# B11: chr17:29575287:29575470:-|CDS|ENSG00000108262|control|control|control (ssRNA)
# RNA: GGGAGUUCUACAGUCCGACGAUCUCUAGAGCUGGGCAAAGAGGAAGACUUCCACCCAGAGCUGGAAAGCCUGGAUGGAGACCUAGAUCCUGGGCUUCCCAGCACAGAGGAUGUCAUCUUGAAGACAGAGCAGGUCACCAAGAACAACAGAGGAUUGAGCAUCA
# B12: chr4:56502255:56502306:+|3pUTR|ENSG00000174780|msi1_unk|FALSE|overlapping (ssRNA)
# RNA: GGGAGUUCUACAGUCCGACGAUCAUUUCAGCUGGAGUCUGAAGAUACUUGUUUCUGUUCAAGUCCCACUUUAAAUUAUGUCUUAGGAGACUGAAAGUGGAAUCUUCUGAGCAUUCCUAAAUAUCUGCUUAGAAAUAUCAUGUGCAACAGAGGAUUGAGCAUCA
# B13: chr14:39095999:39096113:-|CDS|ENSG00000100934|unk|FALSE|bound_elsewhere (ssRNA)
# RNA: GGGAGUUCUACAGUCCGACGAUCACAAUGACAACCUAUUUGGAAUUCAUUCAACAAAAUGAAGAACGAGAUGGAGUCCGAUUUAGUUGGAAUGUUUGGCCAUCAAGUCGACUGGAAGCUACAAGAAUGGUUGUUCCUGUGGCACAACAGAGGAUUGAGCAUCA
# B14: chr1:45660537:45660647:-|5pUTR|ENSG00000159592|unk|FALSE|unique (ssRNA)
# RNA: GGGAGUUCUACAGUCCGACGAUCAUUUUUGAUCUAUUACCUUGAUGACAUUAUUUGUCCACACUUGAGCCCAUCUGUCUUUCUAGCUAUGACCUUGUUAUGAACAGUAUUUGCACUCGGUGCAAAUAUCCAUGUCUUACCUAACAACAGAGGAUUGAGCAUCA
# Target: MSI1 full-length (mouse, UniProt Q61474 1-362)
# Assay: nsRBNS (natural sequence RNA bind-n-seq); RBNS binding buffer (assumed for nsRBNS): 25 mM Tris pH 7.5, 150 mM KCl, 3 mM MgCl2, 0.01% Triton X-100, 500 ug/ml BSA, 20 U/ml SUPERase-In, 4 C; UNK is unkempt and MSI1 is Musashi-1; names of the RNAs are library labels; protein concentration not given here; high values mean tight binding
# Sequence of UniProt Q61474 (Q61474 whole entry): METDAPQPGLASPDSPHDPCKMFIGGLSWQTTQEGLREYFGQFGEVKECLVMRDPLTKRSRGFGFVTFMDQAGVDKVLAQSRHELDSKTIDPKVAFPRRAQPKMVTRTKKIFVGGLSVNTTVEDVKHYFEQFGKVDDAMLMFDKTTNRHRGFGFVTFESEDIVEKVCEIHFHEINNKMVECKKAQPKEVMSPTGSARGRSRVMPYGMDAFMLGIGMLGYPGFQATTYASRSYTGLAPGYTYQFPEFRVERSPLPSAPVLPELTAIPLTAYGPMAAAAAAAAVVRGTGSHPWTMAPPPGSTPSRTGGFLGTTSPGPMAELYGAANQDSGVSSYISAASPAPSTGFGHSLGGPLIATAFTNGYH
row,Binder,binding signal
1,B1,0.213 enrichment R
2,B2,13.4 enrichment R
3,B3,11 enrichment R
4,B4,16.5 enrichment R
5,B5,5.03 enrichment R
6,B6,0.836 enrichment R
7,B7,1.18 enrichment R
8,B8,37 enrichment R
9,B9,13.6 enrichment R
10,B10,7.86 enrichment R
11,B11,0.357 enrichment R
12,B12,2.1 enrichment R
13,B13,0.208 enrichment R
14,B14,0.393 enrichment R
